Test results published in the supplement of paper PMC3334620.
Over roughly 33,000 sequences, “E-score (-0.5 to 0.5)” has its median near -0.035; the highest 2% begin near 0.35. This is one part of the list.

What follows are sequences tested against T1, Pdr3 (UniProt P33200) (assay: PBM E-score (8-mer binding enrichment) (E-score (-0.5 to 0.5)); higher = stronger / more preferred TF binding; most listed sequences are background and not binding sites). Details: protein concentration: 200 nM; construct: GST-full length.
T1 sequence: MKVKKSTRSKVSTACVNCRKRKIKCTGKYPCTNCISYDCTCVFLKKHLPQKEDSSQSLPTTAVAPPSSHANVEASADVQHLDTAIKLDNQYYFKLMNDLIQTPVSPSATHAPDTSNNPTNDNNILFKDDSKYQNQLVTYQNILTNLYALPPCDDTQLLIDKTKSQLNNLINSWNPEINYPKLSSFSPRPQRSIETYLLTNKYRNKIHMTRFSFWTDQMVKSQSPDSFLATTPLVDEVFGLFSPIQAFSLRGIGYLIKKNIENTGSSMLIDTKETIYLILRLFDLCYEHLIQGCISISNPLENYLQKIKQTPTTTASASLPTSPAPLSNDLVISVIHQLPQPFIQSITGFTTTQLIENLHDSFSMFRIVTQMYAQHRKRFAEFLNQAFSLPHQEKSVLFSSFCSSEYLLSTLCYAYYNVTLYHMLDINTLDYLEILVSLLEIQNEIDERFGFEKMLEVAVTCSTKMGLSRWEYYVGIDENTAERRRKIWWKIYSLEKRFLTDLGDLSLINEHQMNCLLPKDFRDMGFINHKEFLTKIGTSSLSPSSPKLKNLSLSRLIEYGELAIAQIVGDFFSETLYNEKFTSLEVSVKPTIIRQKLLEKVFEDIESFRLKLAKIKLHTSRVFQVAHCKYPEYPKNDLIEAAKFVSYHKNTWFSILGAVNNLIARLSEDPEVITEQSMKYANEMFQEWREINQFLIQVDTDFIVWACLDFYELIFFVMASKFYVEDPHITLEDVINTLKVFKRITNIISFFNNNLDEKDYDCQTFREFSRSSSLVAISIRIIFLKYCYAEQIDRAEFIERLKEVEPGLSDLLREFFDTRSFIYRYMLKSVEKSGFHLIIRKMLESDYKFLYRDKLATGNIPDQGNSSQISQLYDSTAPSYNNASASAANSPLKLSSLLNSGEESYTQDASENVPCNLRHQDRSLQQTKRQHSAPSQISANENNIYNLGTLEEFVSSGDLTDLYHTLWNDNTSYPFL
Description: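 Universal 'all 10-mer' protein binding microarrays (Agilent AMADID 015681) probed with GST-tagged S. cerevisiae TFs (full-length or DBD) made by in vitro transcription/translation (PURExpress), about 100-200 nM. Bound TF was detected with fluorescent anti-GST. Each ungapped 8-mer (which stands for itself and its reverse complement) is scored by the PBM enrichment score (E-score), a modified Wilcoxon-Mann-Whitney statistic from -0.5 to +0.5, computed with the Universal PBM Analysis Suite. Scale: above 0.35 generally sequence-specific binding.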

| Sequence | PBM E-score |
| --- | --- |
| ACATACAT | 0.0484 |
| GCCGGAAC | 0.476 |
| ACATTTCA | 0.0369 |
| ATAGTTCA | 0.0132 |
| ATAATGCA | -0.184 |
| AATCCCGA | 0.358 |
| ACACCCGG | 0.291 |
| AGTTGCAT | 0.0468 |
| CGTCTGCC | 0.0736 |
| ATTCTTGC | 0.0442 |
| GCTCGGAC | 0.297 |
| ATAGCAGA | -0.0936 |
| AAGCCGCA | 0.112 |
| AGCCAAGC | -0.227 |
| GCTCTCAA | 0.0132 |
| GATTCCCC | 0.0929 |
| AACTGTTG | -0.0404 |
| GAAGTCGA | 0.0196 |
| ATGGTTTG | 0.0993 |
| GAAAGGCC | 0.0228 |
| GGGAACCA | -0.0124 |
| GGGGACTA | -0.208 |
| CTGGTACA | -0.207 |
| CAAAACAG | -0.103 |
| CTAGATAC | 0.0838 |

| Sequence | PBM E-score |
| --- | --- |
| AATCGGAG | 0.276 |
| CAAGACAA | 0.0377 |
| AAAACTAT | -0.0359 |
| AGTAAAGA | 0.041 |
| AATTTATC | 0.273 |
| ACCTGGAC | -0.0916 |
| GAACACCC | 0.1 |
| GCGACAGA | 0.0984 |
| TTGTACAA | -0.294 |
| AGGTAAAA | -0.157 |
| GCAGCTGA | 0.105 |
| AATCTTTG | -0.166 |
| CTACAAAA | 0.0915 |
| TGCTCCCA | -0.0732 |
| GGGTGCCA | 0.00823 |
| CTAGGTCC | 0.0472 |
| AGCCACCG | 0.0963 |
| ACGCAGGC | -0.0957 |
| AAGTCCTG | -0.175 |
| TAAGGTGA | -0.101 |
| CGAAGTAG | 0.0985 |
| ATATTAAA | 0.238 |
| CTTTACGA | -0.218 |
| CGGTACCA | 0.0596 |
| AAAAAGGA | -0.0374 |

| Sequence | PBM E-score |
| --- | --- |
| TGTTAAAA | -0.16 |
| CCTGAAGC | -0.341 |
| CTCAGGTA | -0.138 |
| ACGGCTCC | 0.227 |
| ATTAATAC | 0.186 |
| GAGGCCTC | -0.116 |
| ACAACGAC | -0.00083 |
| CCTAGGCA | -0.08 |
| ACGTTAGC | -0.0209 |
| ATGTACTG | -0.138 |
| CAGTAAAC | -0.0301 |
| CGGCTGAG | 0.0831 |
| CTCCCGAG | 0.0556 |
| CGAGTGCA | 0.0689 |
| AGCTTATC | 0.126 |
| GCGGTGGA | 0.129 |
| AGGCGGAT | 0.251 |
| CCTTACTC | 0.217 |
| ATTGCGAC | 0.197 |
| CACTTCTC | -0.121 |
| GGTGAGCA | -0.179 |
| CATAGCAA | -0.108 |
| CTCGTAAG | -0.0204 |
| GCATGTAC | -0.133 |
| ACTTAGTC | -0.121 |

| Sequence | PBM E-score |
| --- | --- |
| TCTAGCAA | -0.14 |
| CGTCCTTC | 0.0824 |
| AGAAAGGC | -0.119 |
| CGTATAGA | -0.231 |
| GCATCTAA | 0.0131 |
| CACGGAAC | 0.483 |
| ATTCCGAA | 0.436 |
| CCCTATCG | -0.0588 |
| ATGGGAAC | 0.0766 |
| GGAGAGAC | 0.0135 |
| AGCTTGTA | -0.186 |
| ACTTAGAC | -0.156 |
| GCCCTACA | -0.0817 |
| ATAAAGAT | -0.00554 |
| ACTTAAAT | -0.221 |
| ACTGTAAG | 0.135 |
| TATAGTGA | -0.169 |
| TCGTAGCA | -0.11 |
| GTGTTAAC | -0.159 |
| CGCCCACC | -0.0811 |
| CACGTTTC | 0.00301 |
| ATCACTGG | -0.0407 |
| ATGCTCAA | -0.0315 |
| ATCTTGCG | 0.0369 |
| ACGCAGTA | -0.0886 |

| Sequence | PBM E-score |
| --- | --- |
| GGATGTCA | 0.115 |
| CTCTGCTA | -0.194 |
| CCGTGAGA | 0.11 |
| CATCATAG | -0.104 |
| CCTACCAC | -0.189 |
| ATAGCGGG | 0.0639 |
| GGACACAA | 0.2 |
| CAGTCGCG | 0.00906 |
| ACCGGATG | 0.249 |
| AGGATGAT | -0.0997 |
| CGACGCGA | 0.112 |
| GGCATCCC | -0.0106 |
| GGCTCAGA | -0.0859 |
| CCGGGTCG | 0.378 |
| CGGCAAGA | 0.129 |
| ACGGTGCT | -0.138 |
| GGCACTAA | 0.156 |
| CTTGTAGC | -0.0878 |
| ACGCGGAC | 0.229 |
| GCTGGTAC | 0.029 |
| CCACGCCA | -0.223 |
| GTCGTAGA | -0.0356 |
| AGCCCCCT | -0.371 |
| CATCCAGA | -0.121 |
| CCACACAA | -0.217 |

| Sequence | PBM E-score |
| --- | --- |
| CGTGGTGA | -0.0889 |
| ACTAGCAA | -0.0343 |
| CGGCGCGA | 0.217 |
| AGCCCACT | -0.181 |
| ACCCGATA | 0.158 |
| CAACCTTC | -0.139 |
| AGTAAGCA | -0.258 |
| GCTTTTCC | 0.142 |
| TCTCGCAA | -0.0666 |
| GAGCATCA | -0.157 |
| TCTGATCA | -0.00344 |
| GAGGGCTA | -0.298 |
| AGCTCCTA | -0.135 |
| CTATGCGC | 0.138 |
| AGCCGTCC | 0.188 |
| ACATCCAC | -0.04 |
| AAAAATAG | 0.00396 |
| AATGGTAC | -0.238 |
| GGTGCTGA | -0.104 |
| GAGTGTTA | 0.0189 |
| ACTTTGAT | 0.00528 |
| AAAGTACA | -0.103 |
| ATTCCAGG | -0.00904 |
| AACCCCAA | 0.0286 |
| ACCTGTAC | -0.201 |

| Sequence | PBM E-score |
| --- | --- |
| AGACCTCG | 0.0431 |
| CCCGTCCA | 0.0664 |
| GATAAGTA | 0.0326 |
| CCATAGTC | -0.138 |
| GAATGGTC | 0.18 |
| ACAATGGT | -0.142 |
| AAGCGATT | -0.0256 |
| CGAACGAC | -0.0461 |
| CCTGACAA | -0.14 |
| TACGGCAA | -0.034 |
| AGGCTGTC | -0.152 |
| CCAGGGTC | -0.2 |
| GATCCGCA | 0.319 |
| CCCGCATC | 0.0416 |
| ACTTCGTG | -0.101 |
| CGAAAATC | 0.027 |
| TATCGTCA | -0.162 |
| ACGCGGCT | -0.0608 |
| AGCTACAT | -0.251 |
| AGTACCTG | -0.176 |
| CCATTCTA | -0.142 |
| TCAAGCAA | -0.125 |
